Measurements reported in PubChem BioAssay AID894 (National Center for Advancing Translational Sciences (NCATS), 2007).
Where “and” joins values, the source holds several entries; their conditions need not be identical. Identical values can stand only once. Among all 150,000 compounds or so, about 6,500 (4.3%) were called active. Inconclusive results, whose numbers are uncertain, are shown with a selection of clear calls. Calls follow the shape of the dose curve; as a rule, active = well fitted inhibition curve with a large enough effect (not every such curve was filed as active); inconclusive = small, poorly fitted or top-dose-only effect, or another doubt; inactive = no such curve, though single readings can be large or run the other way. Potencies beside an inconclusive call are fits to weak or partial responses and may not hold up.

Target: 15-hydroxyprostaglandin dehydrogenase [NAD(+)] (Homo sapiens) (UniProt P15428)
Sequence of UniProt P15428 (P15428 whole entry, looked up): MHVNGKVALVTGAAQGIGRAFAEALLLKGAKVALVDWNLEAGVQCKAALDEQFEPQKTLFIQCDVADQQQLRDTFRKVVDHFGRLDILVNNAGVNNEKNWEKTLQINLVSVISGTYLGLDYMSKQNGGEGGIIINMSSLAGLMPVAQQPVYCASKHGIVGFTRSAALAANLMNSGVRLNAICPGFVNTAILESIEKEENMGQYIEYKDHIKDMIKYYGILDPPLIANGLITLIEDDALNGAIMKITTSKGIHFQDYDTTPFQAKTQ
Experiment: qHTS Assay for Inhibitors of HPGD (15-Hydroxyprostaglandin Dehydrogenase)
Details: purified HPGD, NADH fluorescence kinetic, PGE2 substrate; activity change, negative = inhibition: stronger effect = lower value
Summary of the method: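 NADH formation kinetics: reaction with 30 uM PGE2 and 1 mM NAD+ (final), 20 nM enzyme, Tris-HCl pH 8 with Tween 20, after 15 min compound preincubation at room temperature. Fluorescence change, last versus first of five reads.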
% is scaled to controls: 0 for no effect and ±100 for the full control effect; potency is read from the fitted curve at half-maximal effect; tags tell the direction and shape of the fitted curve.

Row | SMILES | Potency | activity change, negative = inhibition
1 | COc1ccc(/C=C/C(=O)NC(=S)Nc2ccc(S(=O)(=O)Nc3nccnc3OC)cc2)cc1 | inconclusive: 22.4 µM [inhibitor, single point] | 
2 | Cc1ccnc2ccc(-c3nc4ccccc4o3)cc12 | inconclusive: 14.1 µM [inhibitor, partial curve] | 
3 | Cc1ccccc1CS(=O)(=O)c1nnc([C@H](Cc2ccccc2)NC(=O)OC(C)(C)C)o1 | active: 7.08 µM | 
4 | CCOC(=O)C1=C(C)N(c2ccccc2)C(=O)/C1=C\c1ccco1 |  | inactive: -18.5%
5 | Cc1ccc(C(=O)Nc2nc(-c3ccccc3)c(-c3ccccc3)o2)cc1 | inconclusive: 39.8 µM [inhibitor, single point] | 
6 | CCN(c1ccc(C)c(C)c1)S(=O)(=O)c1c(C)[nH]c(=O)[nH]c1=O |  | inactive: -8.8%
7 | COCCCNS(=O)(=O)c1ccc(S(=O)(=O)N2CCCC2)cc1 |  | inactive: -1.36%
8 | Clc1ccc(-c2nnc(CSc3nnc(-c4cccs4)n3Cc3ccccc3)o2)cc1 |  | inactive: -8.49%
9 | Cc1noc(C)c1COC(=O)c1ccc2c(c1)S(=O)(=O)c1ccccc1C2=O | active: 28.2 µM | 
10 | c1coc(C2Nc3ccccc3-c3nc4ccccc4n32)c1 (stereo not given) | inconclusive: 14.1 µM [inhibitor, partial curve] | 
11 | COc1ccc2sc(N3C(=O)C4CC=C(C)CC4C3=O)nc2c1 (stereo not given) |  | inactive: -13%
12 | COc1cc(/C=C2/SC(=O)N(Cc3ccccc3)C2=O)ccc1OCc1ccncc1 | inconclusive: 6.31 µM [inhibitor, partial curve] | 
13 | C[N+](C)(C)CCCCCC[N+](C)(C)C |  | inactive: -1.22% [middle of 4 runs]
14 | COc1cc2c(cc1NC(=O)CN1CCN(S(=O)(=O)c3ccccc3F)CC1)oc1ccccc12 | inconclusive: 22.4 µM [inhibitor, partial curve] | 
15 | FC(F)(F)c1cc(-c2ccccc2)nc(NCc2cccs2)n1 | inconclusive: 11.2 µM [inhibitor, partial curve] | 
16 | CCCn1c(-c2ccc(F)cc2)nc2c(N3CCCN(Cc4ccccc4)CC3)nc(C)nc21 | inconclusive: 22.4 µM [inhibitor, partial curve] | 
17 | Cc1ccc(CNC(=O)CS(=O)Cc2nc(-c3cccs3)oc2C)cc1 (stereo not given) | active: 28.2 µM | 
18 | O=C(CSc1nnnn1-c1cccc2c1CCCC2)N1CCCCC1 | inconclusive: 39.8 µM [inhibitor, single point] | 
19 | CCOC(=O)CN1C(=O)N[C@@H](c2ccccc2)C(C(C)=O)=C1C |  | inactive: -7.18% and inactive: -4.5%
20 | COc1cc(OC)c2c(-c3cccc(/C=C/c4ccc(F)cc4)c3)cc(=O)oc2c1 | inconclusive: 35.5 µM [inhibitor, single point] | 
21 | O=C(NCC1CCCO1)c1cc(-c2ccco2)nc2ccccc12 (stereo not given) | inconclusive: 25.1 µM [inhibitor, partial curve] | 
22 | O=C(COC(=O)CCCN1C(=O)c2cccc3cccc(c23)C1=O)Nc1cccc(Br)c1 | inconclusive: 25.1 µM [inhibitor, single point] | 
23 | Cc1cc(O)c(-c2cc(O)c(C)cc2O)cc1O | inconclusive: 2.82 µM [inhibitor, partial curve] | 

Row | SMILES | Potency | activity change, negative = inhibition
24 | COC(=O)C1=NN(c2cccc(C)c2)C2C(=O)N(c3ccccc3OC)C(=O)C12 (stereo not given) | inconclusive: 31.6 µM [inhibitor, single point] | 
25 | COc1ccc(-c2cc3ccccc3n2CC(O)CN2CCOCC2)cc1 (stereo not given) | inconclusive: 28.2 µM [inhibitor, partial curve] | 
26 | O=C(CSc1nnc(SCC(=O)c2ccco2)s1)c1ccco1 | active: 31.6 µM | 
27 | COc1ccc(-c2c(C)oc3c(CN4CCN(C)CC4)c(O)ccc3c2=O)cc1 | inconclusive: 25.1 µM [inhibitor, partial curve] | 
28 | O=c1ccc2ccc(O)cc2o1 | inconclusive: 28.2 µM [inhibitor, partial curve] | 
29 | CC1(C)CC(=O)c2c(oc3cc(O)c(O)cc23)C1 | active: 14.1 µM and active: 6.31 µM | 
30 | CCCc1noc2c1/C(=N\O)CCC2 |  | inactive: -17.1%
31 | c1ccc(-c2c3ccccc3nc3[nH]c4ccccc4c23)cc1 | inconclusive: 28.2 µM [inhibitor, partial curve] and inconclusive: 20 µM [inhibitor, partial curve] | 
32 | CN=Cc1c(NC)nc2c(C)cccn2c1=O | inconclusive: 28.2 µM [inhibitor, single point] | 
33 | COC(=O)c1cc(CSc2nnc(-c3ccccc3)c(-c3ccccc3)n2)oc1C | inconclusive: 39.8 µM [inhibitor, partial curve] | 
34 | OCc1ccccc1O[C@H]1OC(CO)C(O)C(O)C1O (stereo not given in full) |  | inactive: 5.43%
35 | COC(=O)CSc1nnc(C)n1-c1ccc(C)cc1 |  | inactive: 6.34%
36 | O=C(c1cnn2c(C(F)(F)F)cc(-c3ccco3)nc12)N1CCc2ccccc2C1 | inconclusive: 11.2 µM [inhibitor, partial curve] | 
37 | c1ccc(N2CCN(c3nc4cc5c(cc4s3)OCO5)CC2)cc1 | inconclusive: 11.2 µM [inhibitor, partial curve] | 
38 | O=C(c1ccccc1)c1ccc(C(=O)N2CCOCC2)cc1 | active: 7.94 µM | 
39 | COc1ccc(Nc2cc(C)nc3nc(C)nn23)c(OC)c1 | active: 8.91 µM | 
40 | Cc1ccc(-c2n[nH]c(=S)n2/N=C/c2c(C)nn(-c3ccccc3)c2C)cc1 | active: 1.12 µM | 
41 | CC1Cc2ccccc2N1CC(=O)NCc1ccc2c(c1)OCO2 (stereo not given) | inconclusive: 20 µM [inhibitor, single point] | 
42 | COCC(C)NC(=O)c1ccccc1OC(C)=O (stereo not given) | inconclusive: 17.8 µM [inhibitor, single point] | 
43 | N#Cc1c(NC(=O)C2CC(c3ccccc3O)=NO2)sc2c1CCC2 (stereo not given) | active: 25.1 µM | 
44 | COc1ccc2c(-c3ccccc3)cc(SCC(=O)N(C)C3CCS(=O)(=O)C3)nc2c1 (stereo not given) | inconclusive: 25.1 µM [inhibitor, partial curve] | 
45 | Fc1cccc2sc(Nc3nc4ccccc4s3)nc12 | inconclusive: 10 µM [inhibitor, partial curve] | 
